The other results are listed elsewhere or left out.

For this assay, the system named is T1, C. trachomatis L2/434/Bu expressing GFP (CTL2-GFP).
T1 construct: L2/434/Bu GFP intracellular growth in HeLa cells
Set-up: species or system HeLa; C. trachomatis total inclusion area by high-content imaging, normalised to DMSO. As to conditions: total inclusion area; 28.5 h, 10 µM; inhibitor. The procedure, abridged: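 High-content images of fixed, Hoechst-stained infected cultures supply inclusion area and count (growth) plus nuclei number (viability), complementing bulk GFP/resorufin fluorescence. MIC determination is unchanged from the primary assay.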
Take `Cc1ccc(OCC(=O)NC(=S)Nc2cccc(-c3nc4ncccc4o3)c2C)cc1` [CBK263925]: the “% of control remaining” value was 87.4274.

`Cc1ccc(C)c(CSC2CCN(C3CCOCC3)C2=O)c1` (stereo not drawn) [CBK304865]: the “% of control remaining” value amounted to 49.0271.

For `O=C(O)c1ccc(CN2CCOC[C@H]2c2nc(-c3ccc(C(F)(F)F)cc3)c[nH]2)cc1` [CBK289317], the “% of control remaining” value worked out at 97.7716.

As to `COc1ccc2c(ccn2S(=O)(=O)c2ccc(N3CCNCC3)c(C(F)(F)F)c2)c1` [CBK034033C], the “% of control remaining” value is 39.846.

Consider `CN1CCC(N2CCN(C(=O)Nc3cccnc3)CC2)CC1` [CBK156111], for which the “% of control remaining” value is listed as 61.9753.

Consider `Cc1nc(C)c(-c2csc(Nc3ccc(C(=O)O)c(O)c3)n2)s1` [CBK267263], for which the “% of control remaining” value worked out at 112.049.

`CCC(Oc1ccccc1)C(=O)Nc1cc(OC)c(Cl)cc1OC` (stereo not drawn) [CBK262235]: the “% of control remaining” value worked out at 91.3634.

With `COc1ccc(C(=O)NCCCc2nc3ccccc3[nH]2)cc1OC` [CBK270018], the “% of control remaining” value amounted to 97.7327.

For `Cc1cc(C[C@@H]2COC[C@H]2NCc2c(F)cccc2Cl)on1` [CBK282994], the “% of control remaining” value stood at 89.9827.

On to `O=C(COc1ccc2oc3c(c2c1)CCCC3)Nc1cccc2cccnc12` [CBK266137], for which the “% of control remaining” value is reported as 125.945.

As to `O=C(Oc1ccccc1)c1ccnc(Cl)c1` [CBK090322], the “% of control remaining” value is 61.1094.

With `COc1ncccc1C(=O)Nc1c(C)noc1C` [CBK200307], the “% of control remaining” value is 85.6767.

As to `O=S(=O)(Nc1cc(NCCCN2CCOCC2)c2occc2c1)c1ccccc1C(F)(F)F` [CBK067838C], the “% of control remaining” value is 42.1859.

Consider `O=C(CSc1cnn[nH]1)Nc1ccc(F)cc1` [CBK270024], for which the “% of control remaining” value came to 77.6345.

Consider `COc1ccc(-c2cc(C(=O)NCCc3cccc(C(F)(F)F)c3)cnc2-c2ccccc2)cn1` [CBK036662], for which the “% of control remaining” value was determined as 108.296.

Consider `Cc1nn(CC(=O)NC2CC2)c(=O)c2cc3sccc3n12` [CBK284047], for which the “% of control remaining” value is on record as 67.7387.

Take `CCCC1=NNC(=O)C1Cc1c(F)cccc1Cl` (stereo not drawn) [CBK067753]: the “% of control remaining” value is reported as 95.4938.

For the compound `CC(=O)NCCN1CCC(O)(c2ccc(C)cc2)CC1` [CBK283321], the “% of control remaining” value was found to be 110.186.

In the case of `CC(C)OC(=O)CCNC(=O)c1cccc(S(=O)(=O)N2CCCC2)c1` [CBK306090], the “% of control remaining” value is on record as 51.214.

In the case of `Cc1ccc(O)c(NC(=O)c2ccccc2-c2ccccc2C(=O)O)c1` [CBK266763], the “% of control remaining” value was 107.677.

Regarding `COc1ccc(CN(C(=O)c2cccc(-n3cnnn3)c2)C2CC2)cc1` [CBK256997], the “% of control remaining” value is recorded as 56.8197.

Regarding `O=[N+]([O-])c1ccc(N2CCN(Cc3ccccc3)CC2)cc1NCc1ccccc1` [CBK045841], the “% of control remaining” value is recorded as 88.3182.

Turning to `O=C(O)CSc1nc2ccccc2n2cnnc12` [CBK269831], the “% of control remaining” value is on record as 86.6622.

In the case of `Cc1ccccc1Cn1c(CN2CCCCC2C)nc2c1c(=O)n(C)c(=O)n2C` (stereo not drawn) [CBK269199], the “% of control remaining” value is listed as 97.769.

Turning to `Cc1ccccc1NC(=O)c1c(NC(=O)Cc2ccccc2)sc2c1CCCC2` [CBK262572], the “% of control remaining” value was determined as 90.6499.

`CC(=O)/N=c1\[nH]c(NC(C)=O)nn1-c1ccccc1` [CBK287938]: the “% of control remaining” value was determined as 100.633.

Regarding `COc1cc(C=Cc2cc(C(=O)O)c3ccccc3n2)cc(Cl)c1OC(C)C` [CBK296941], the “% of control remaining” value was found to be 91.2958.

Consider `Cn1cnc(C(=O)N2CCC[C@@H]3NC(=O)c4ccccc4OCCCCC[C@@H]32)c1` [CBK292122], for which the “% of control remaining” value is listed as 79.0448.

As to `Cc1cc(CN2CCC(N(C)Cc3nnc(C)n3C)C2)no1` (stereo not drawn) [CBK305088], the “% of control remaining” value is 40.969.

In the case of `CN(C)CCN(Cc1cccnc1)C(=O)C1(c2ccccc2F)CC1` [CBK282771], the “% of control remaining” value is listed as 90.8931.

`OCCN1CCN(C(c2ccccc2)c2sc3ncnn3c2O)CC1` (stereo not drawn) [CBK287611]: the “% of control remaining” value is on record as 85.1281.

In the case of `FC(F)(F)c1ccc(Sc2ccncc2)nc1` [CBK115217], the “% of control remaining” value is 90.3023.

In the case of `Cc1cc(I)ccc1NC(=O)CCN1C(=O)c2cccc([N+](=O)[O-])c2C1=O` [CBK263128], the “% of control remaining” value is given as 106.805.

For the compound `Cc1nc(CN2CCC(Oc3nccnc3OCc3ccc(Cl)c(Cl)c3)CC2)cs1` [CBK153787], the “% of control remaining” value came to 89.4297.

For `c1ccc(CNc2nc(-c3ccsc3)cn3ccnc23)cc1` [CBK037868], the “% of control remaining” value is listed as 108.234.

For `O=c1ccc2c(-c3ccsc3)ccnc2[nH]1` [CBK073724], the “% of control remaining” value turned out to be 97.5299.

Turning to `Nc1c(C(F)(F)F)cc(Cl)nc1Cl` [CBK005620], the “% of control remaining” value turned out to be 91.6244.

`CCOC(=O)Nc1ccsc1C(=O)OC` [CBK027880]: the “% of control remaining” value stood at 147.561.

With `O=C(O)CCC1NC(=O)N(C2CCCCC2)C1=O` (stereo not drawn) [CBK287046], the “% of control remaining” value was found to be 101.817.

With `Cc1ccc(C(=O)n2c(=S)nc3ccccn32)cc1` [CBK025729], the “% of control remaining” value is recorded as 79.6582.

For `COCC(=O)N1C2CCC(C2)[C@@H]1COc1ccc(F)cc1` (stereo partly drawn) [CBK284603], the “% of control remaining” value is 83.024.

As for `Cc1cc(C)n(CCC(=O)N2CCCC2c2nc3ccccc3[nH]2)n1` (stereo not drawn) [CBK283664], the “% of control remaining” value stood at 95.0484.

Turning to `CCOC(=O)c1ccccc1NC(=O)n1ccc2c(N3CCNCC3)cccc21` [CBK003731C], the “% of control remaining” value is listed as 3.456.

`Cc1cccc(=O)n1CCCn1cc(C2CCCNC2)nn1` (stereo not drawn) [CBK306946]: the “% of control remaining” value was determined as 37.2985.

In the case of `O=C(Cn1c(-c2cccs2)cc2cccnc21)N1CCOCC1` [CBK282452], the “% of control remaining” value came out at 115.804.

As to `COC(=O)c1c(-c2ccc(F)cc2)csc1NC(=O)CSc1ncnc2sc3c(c12)CCC3` [CBK265976], the “% of control remaining” value is reported as 98.9472.

Regarding `O=C(c1ccncc1)C12CN3CN(CN(C3)C1)C2` [CBK261451], the “% of control remaining” value worked out at 112.028.

For the compound `COc1ccc(CCC2CCN(C)CC2)c(O)c1` [CBK283668], the “% of control remaining” value was 90.3952.

Take `CC(C)N(CCOc1nccnc1-c1ccsc1)C(C)C` [CBK106777]: the “% of control remaining” value is 81.3635.

`CCN1CC(C(=O)N2CCN(C)CC2c2ccccc2)CC1=O` (stereo not drawn) [CBK282026]: the “% of control remaining” value was determined as 102.135.

For the compound `CCn1cc(C2CN(S(=O)(=O)c3cccc(C(C)C)c3)CCO2)cn1` (stereo not drawn) [CBK304227], the “% of control remaining” value is reported as 54.9879.

Take `O=C(CCCc1nc(-c2ccc(Cl)cc2)no1)NCc1cccnc1` [CBK269415]: the “% of control remaining” value is listed as 54.7651.

Consider `CN(C)CC(C)(C)CN1C2CCC1CC(O)(c1ccccc1F)C2` (stereo not drawn) [CBK282648], for which the “% of control remaining” value is 141.541.

`OCCN(CCO)CC1CC2C=CC1C2` (stereo not drawn) [CBK261874]: the “% of control remaining” value is 105.011.

In the case of `Cn1nc(-c2ccc(S(=O)(=O)n3cc(C#N)c(N)n3)s2)cc1C(F)(F)F` [CBK067237], the “% of control remaining” value is listed as 87.4635.

On to `O=C(NCCN1CCOCC1)C1CCN(c2nc3c(-c4ccccc4F)csc3c(=O)[nH]2)CC1` [CBK215442], for which the “% of control remaining” value amounted to 127.736.

`CCOC(=O)c1c(C)nc2n(CCN3CCCCC3)c3ccccc3n12` [CBK278238C]: the “% of control remaining” value came out at 88.2932.

Take `Cc1nccn1CCNC(=O)CCc1cn(C)c2ccccc12` [CBK281962]: the “% of control remaining” value came out at 112.117.

Consider `COc1nc(-c2cccnc2)cn2ccnc12` [CBK093490], for which the “% of control remaining” value was 95.5.

With `CC(=O)NCCNc1ccc(C(=O)O)cc1[N+](=O)[O-]` [CBK264184], the “% of control remaining” value is 107.721.

`Cc1ccc(C(=O)O)cc1NC(=O)C(=O)NCC(c1ccccc1)N1CCN(C)CC1` (stereo not drawn) [CBK286864]: the “% of control remaining” value is recorded as 72.498.

With `OC1(c2cccnc2F)CCN(Cc2ccc(Cl)cc2)CC1` [CBK284368], the “% of control remaining” value turned out to be 81.6774.

Regarding `O=C(CC(C(=O)O)N1CCOCC1)Nc1ccccc1` (stereo not drawn) [CBK267008], the “% of control remaining” value amounted to 102.359.

With `CC(C)C(=O)Nc1cc2cccnc2c(-c2ccc3c(c2)CCO3)n1` [CBK081260], the “% of control remaining” value stood at 94.4814.

In the case of `O=C(Nc1ccc(N2CCNCC2)nc1)c1cccs1` [CBK029430T], the “% of control remaining” value is 108.379.

With `O=C(Cc1c[nH]c2ccccc12)Nc1cncc(OC2CCNCC2)n1` [CBK028441T], the “% of control remaining” value worked out at 96.9495.

Consider `O=S(=O)(Nc1cccc(C(F)(F)F)c1)c1cc2c(N3CCNCC3)nccc2s1` [CBK039085C], for which the “% of control remaining” value worked out at 80.8487.

Consider `COc1cccc(CN2CCC3(CCCNC3=O)CC2)c1` [CBK284824], for which the “% of control remaining” value is listed as 88.8171.

Turning to `CN(c1cc(F)ccc1[N+](=O)[O-])S(=O)(=O)c1ccccc1` [CBK001369], the “% of control remaining” value is 85.6944.

Take `COc1cccc(C(=O)N2CCCC(c3cc4ncccc4[nH]3)C2)c1` (stereo not drawn) [CBK283416]: the “% of control remaining” value is 66.403.

With `O=S(=O)(Oc1ccc2ccccc2c1)c1ccc2c(c1)Cc1cc(S(=O)(=O)Oc3ccc4ccccc4c3)ccc1-2` [CBK262385], the “% of control remaining” value was found to be 86.6488.

Regarding `Cc1nnnn1CC(=O)Nc1nn(C)c2cccc(N3CCOCC3)c12` [CBK307335], the “% of control remaining” value is recorded as 52.4344.

With `Cc1ccc(C(C)C)c(OCC(=O)NS(=O)(=O)c2ccc(Br)cc2)c1` [CBK268719], the “% of control remaining” value amounted to 117.684.

Regarding `Cc1ccc(S(=O)(=O)c2ccc(C)c(S(=O)(=O)N3CCCC3)c2)cc1S(=O)(=O)N1CCCC1` [CBK261772], the “% of control remaining” value amounted to 105.765.

In the case of `O=C(N[C@@H](Cc1ccc(OCc2ccc(Cl)cc2Cl)cc1)C(=O)O)C1CCCC1` [CBK017610], the “% of control remaining” value amounted to 84.8893.

Regarding `Oc1ccc2ccccc2c1/C=N/Nc1nnc(-c2ccccc2)c(-c2ccccc2)n1` [CBK262005], the “% of control remaining” value is given as 105.254.

For the compound `Cn1ccnc1CNC(=O)c1cccc(OCC(=O)N2CCCCC2)c1` [CBK306635], the “% of control remaining” value was 96.0874.

For `CCCN1CCC(NC(=O)c2cccc(S(N)(=O)=O)c2)CC1` [CBK305956], the “% of control remaining” value came out at 49.7143.

Take `COc1ccc(CN2CCN(Cc3ccc4c(c3)OCO4)CC2)c(OC)c1OC` [CBK033874]: the “% of control remaining” value was 85.8133.

Consider `O=C(O)c1ccc(-n2nnnc2SCc2ccccc2)cc1` [CBK287161], for which the “% of control remaining” value came out at 91.8151.

With `O=C1c2ccc(Oc3ccc4c(c3)C(=O)N(c3ccccn3)C4=O)cc2C(=O)N1c1ccccn1` [CBK261202], the “% of control remaining” value is listed as 105.003.

These data come from article PMC12040169 (PLOS Biology, 2025).
